Here are results for five compounds from paper PMC11207571, “Applicability of MDR1 Overexpressing Abcb1KO-MDCKII Cell Lines for Investigating In Vitro Species Differences and Brain Penetration Prediction” (Pharmaceutics, 2024).

SMILES strings stand for the structures.

The target of data set [1] is T1, rat Mdr1a (Rattus norvegicus, UniProt Q6PSM0). Kind of data set: Bidirectional transport assay, efflux ratio in Abcb1KO-MDCKII rMDR1 cells. The settings on record: pH 7.4. Here is the method: (§1) Eluent A consisted of 0.1% formic acid in water, eluent B consisted of 0.1% formic acid in acetonitrile. Then, 10 µL samples were injected into the HPLC-MS/MS system. Mass spectrometric detection was performed in SRM mode, and ion transitions for each analyte were optimized during method development. Samples were analyzed in pools, with each pool containing three to four analytes.
T1 sequence (Q6PSM0 1-1272): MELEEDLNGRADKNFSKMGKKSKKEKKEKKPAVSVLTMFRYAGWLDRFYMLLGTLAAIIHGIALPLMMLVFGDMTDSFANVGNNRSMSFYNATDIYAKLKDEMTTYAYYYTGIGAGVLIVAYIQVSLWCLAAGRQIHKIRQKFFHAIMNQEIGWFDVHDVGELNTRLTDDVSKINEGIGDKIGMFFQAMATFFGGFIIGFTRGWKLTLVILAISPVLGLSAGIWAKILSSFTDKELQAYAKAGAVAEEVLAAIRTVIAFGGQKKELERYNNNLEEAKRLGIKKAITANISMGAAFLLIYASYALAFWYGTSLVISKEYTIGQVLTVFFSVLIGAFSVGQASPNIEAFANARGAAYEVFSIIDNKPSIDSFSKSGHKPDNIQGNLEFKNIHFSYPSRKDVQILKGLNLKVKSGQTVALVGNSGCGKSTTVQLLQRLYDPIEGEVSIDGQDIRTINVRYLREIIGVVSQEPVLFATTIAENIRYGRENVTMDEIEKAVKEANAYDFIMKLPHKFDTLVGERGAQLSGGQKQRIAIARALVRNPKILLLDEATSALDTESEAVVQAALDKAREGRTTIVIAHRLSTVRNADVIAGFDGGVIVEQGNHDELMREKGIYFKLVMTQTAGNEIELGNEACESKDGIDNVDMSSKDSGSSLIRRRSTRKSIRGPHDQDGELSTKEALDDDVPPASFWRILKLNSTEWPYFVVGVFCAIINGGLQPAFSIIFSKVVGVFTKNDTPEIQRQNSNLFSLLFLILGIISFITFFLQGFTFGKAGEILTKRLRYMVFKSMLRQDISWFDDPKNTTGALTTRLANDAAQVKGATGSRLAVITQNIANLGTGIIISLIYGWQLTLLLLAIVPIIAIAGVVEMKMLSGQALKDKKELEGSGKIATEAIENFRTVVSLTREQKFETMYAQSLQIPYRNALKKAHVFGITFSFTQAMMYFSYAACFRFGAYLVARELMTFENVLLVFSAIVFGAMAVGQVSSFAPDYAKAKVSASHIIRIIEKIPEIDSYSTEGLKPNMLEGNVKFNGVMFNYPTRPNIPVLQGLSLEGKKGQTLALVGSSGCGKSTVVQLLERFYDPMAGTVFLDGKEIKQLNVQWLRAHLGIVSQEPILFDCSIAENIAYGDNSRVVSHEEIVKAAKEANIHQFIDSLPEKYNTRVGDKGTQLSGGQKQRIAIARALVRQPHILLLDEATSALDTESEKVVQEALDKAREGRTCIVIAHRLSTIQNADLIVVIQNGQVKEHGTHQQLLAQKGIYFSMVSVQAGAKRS

Another data set has as its target T2, human BCRP (Homo sapiens, UniProt Q9UNQ0).
T2 sequence (Q9UNQ0 1-655): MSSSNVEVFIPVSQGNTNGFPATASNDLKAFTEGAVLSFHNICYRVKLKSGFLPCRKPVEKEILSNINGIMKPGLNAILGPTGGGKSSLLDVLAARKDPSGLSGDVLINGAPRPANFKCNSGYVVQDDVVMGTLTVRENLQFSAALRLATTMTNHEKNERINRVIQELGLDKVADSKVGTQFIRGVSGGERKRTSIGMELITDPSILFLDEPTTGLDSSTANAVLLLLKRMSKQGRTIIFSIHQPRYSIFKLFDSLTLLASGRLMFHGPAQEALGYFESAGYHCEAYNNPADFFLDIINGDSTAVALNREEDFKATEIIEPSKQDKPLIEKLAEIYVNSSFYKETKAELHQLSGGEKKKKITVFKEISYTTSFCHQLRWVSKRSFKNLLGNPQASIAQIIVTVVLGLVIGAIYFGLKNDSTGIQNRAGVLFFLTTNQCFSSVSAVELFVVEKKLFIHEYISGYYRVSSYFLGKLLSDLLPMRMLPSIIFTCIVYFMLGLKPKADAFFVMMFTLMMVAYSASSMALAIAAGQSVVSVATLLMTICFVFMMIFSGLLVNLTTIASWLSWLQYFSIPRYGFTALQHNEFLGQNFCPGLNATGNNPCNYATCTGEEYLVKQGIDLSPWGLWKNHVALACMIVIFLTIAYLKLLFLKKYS
The data set can be described thus: Bidirectional transport assay, efflux ratio in MDCKII-BCRP cells. The settings on record: pH 7.4. Here is the method:
as §1

The target in data set [2] is T3, cynomolgus monkey Mdr1 (Macaca fascicularis, UniProt Q8HZQ6). The data set can be described thus: Bidirectional transport assay, efflux ratio in Abcb1KO-MDCKII cyMDR1 cells. The conditions noted are these: pH 7.4. Here is the method:
as §1

A further data set addresses human MDR1 (Homo sapiens, UniProt P08183). The data set can be described thus: Bidirectional transport assay, efflux ratio in Abcb1KO-MDCKII hMDR1 cells. The settings on record: MDCK-MDR1, pH 7.4. Here is the method: as §1
A short description of data set [3]: Bidirectional transport assay, efflux ratio in Abcb1KO-MDCKII-Mock control cells. The settings on record: dog, MDCK, pH 7.4. Here is the method:
as §1

Data set [4] concerns the target T4, mouse Mdr1a (Mus musculus, UniProt P21447). The data set can be described thus: Bidirectional transport assay, efflux ratio in Abcb1KO-MDCKII mMDR1 cells. The conditions noted are these: pH 7.4. Here is the method: as §1
The subject of another data set is hMDR1 and hBCRP. The data set can be described thus: Brain permeability classification from total ER of hMDR1 and hBCRP against in vivo rodent Kp,uu,brain. The settings on record: total ER cut-off 3; in vivo rodent Kp,uu,brain cut-off 0.3. Here is the method:
MDR1 and/or BCRP substrate properties were investigated by binary classification analysis on CNS+ and CNS− compounds. […] True negative (TN), where there was no efflux and the CNS+ compound crossed the BBB. […] The sensitivity and specificity of the estimation of brain penetration along with MDR1 and BCRP activity were calculated from predictive performance metrics.
First, NET ER was calculated and used for human predictions, (2) NET ER=ER(−inh)[…]ER(+inh) where ER(−inh) is ER in the absence of inhibitor, and ER(+inh) is ER in the presence of inhibitor, for hMDR1 (ERMDR1) or hBCRP (ERBCRP).
To identify the correlation between the in vivo rodent Kp,uu,brain and ERs, 58 compounds with known Kp,uu,brain were selected. […] Predictive performance metrics were calculated to show the efficacy of the established cell lines in BBB permeability classification (Table 1). […]
Subsequently, for a more reliable prediction of brain penetration, data generated in the hBCRP cell line were included in the analysis. hBCRP assay conditions and evaluations were identical to that of MDR1 cell lines, which allowed proper comparisons (Figure 2E,F). Total ER was calculated by combining ERs determined in BCRP and hMDR1 cell lines based on Equation (3), with an ER cut-off of 3. […] Eventually, total ERs were also assessed with the Relative Expression Factor (REF) (Equation (4); Figure 2E,F). […]

Data set [5] has as its target T3, cynomolgus monkey Mdr1. Kind of data set: cell-based.
Data set [6] concerns the target T4, mouse Mdr1a. Kind of data set: Inhibition of 3H-digoxin or 3H-quinidine bidirectional transport in mMDR1 cells. The data set is classed as cell-based. Also noted: mouse Mdr1a (NM_011076.3); expressed in transfected cells; host or cells: Abcb1KO-MDCKII (canine kidney, endogenous Abcb1 knocked out), transduced, single-cell clone. The settings on record: IC50 from ER.

For data set [7], the target named is T3, cynomolgus monkey Mdr1. The data set can be described thus: Inhibition of 3H-digoxin or 3H-quinidine bidirectional transport in cyMDR1 cells. The conditions noted are these: Inhibition of quinidine transport IC50±SD, cyMDR1, probe 3H-quinidine 0.1 µM, 60 min; IC50 from ER.
The target of data set [8] is T1, rat Mdr1a. The data set can be described thus: Inhibition of 3H-digoxin or 3H-quinidine bidirectional transport in rMDR1 cells. Also on record: rat Mdr1a (NM_133401.1); expressed in transfected cells; host or cells: Abcb1KO-MDCKII (canine kidney, endogenous Abcb1 knocked out), transduced, single-cell clone. It is filed as cell-based. The settings on record: IC50 from ER.

Chain of human MDR1 (P08183 whole entry): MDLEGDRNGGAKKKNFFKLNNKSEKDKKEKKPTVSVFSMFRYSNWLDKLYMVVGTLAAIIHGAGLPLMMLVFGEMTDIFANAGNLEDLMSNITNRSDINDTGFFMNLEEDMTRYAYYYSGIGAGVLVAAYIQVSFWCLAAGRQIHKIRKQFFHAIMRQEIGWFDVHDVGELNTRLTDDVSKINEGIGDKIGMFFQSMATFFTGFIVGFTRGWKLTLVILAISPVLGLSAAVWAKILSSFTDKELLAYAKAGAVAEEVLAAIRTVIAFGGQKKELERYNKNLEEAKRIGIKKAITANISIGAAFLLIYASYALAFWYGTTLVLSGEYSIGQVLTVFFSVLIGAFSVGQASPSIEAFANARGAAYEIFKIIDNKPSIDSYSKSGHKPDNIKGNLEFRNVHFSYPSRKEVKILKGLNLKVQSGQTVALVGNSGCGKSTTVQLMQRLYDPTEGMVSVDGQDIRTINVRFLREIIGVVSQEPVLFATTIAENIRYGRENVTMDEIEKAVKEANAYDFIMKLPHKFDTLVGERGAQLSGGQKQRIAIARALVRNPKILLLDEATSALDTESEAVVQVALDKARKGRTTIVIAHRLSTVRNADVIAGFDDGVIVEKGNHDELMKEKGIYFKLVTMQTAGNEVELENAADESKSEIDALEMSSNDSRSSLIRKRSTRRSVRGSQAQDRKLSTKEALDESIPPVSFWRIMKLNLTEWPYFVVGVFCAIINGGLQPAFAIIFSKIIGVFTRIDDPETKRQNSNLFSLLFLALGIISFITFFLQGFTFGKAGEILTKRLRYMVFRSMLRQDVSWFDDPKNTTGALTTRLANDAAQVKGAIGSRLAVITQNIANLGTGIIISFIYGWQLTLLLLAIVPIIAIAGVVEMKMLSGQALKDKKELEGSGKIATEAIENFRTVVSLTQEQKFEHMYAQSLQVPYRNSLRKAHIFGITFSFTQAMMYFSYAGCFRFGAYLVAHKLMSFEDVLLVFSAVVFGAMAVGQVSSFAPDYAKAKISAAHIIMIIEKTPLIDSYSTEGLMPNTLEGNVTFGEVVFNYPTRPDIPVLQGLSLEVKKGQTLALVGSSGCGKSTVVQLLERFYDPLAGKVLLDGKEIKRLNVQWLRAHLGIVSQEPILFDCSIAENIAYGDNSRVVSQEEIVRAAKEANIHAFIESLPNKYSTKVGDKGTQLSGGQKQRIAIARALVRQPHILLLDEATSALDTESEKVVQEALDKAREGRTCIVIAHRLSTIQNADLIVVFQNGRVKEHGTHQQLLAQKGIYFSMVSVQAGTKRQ
T3 sequence (Q8HZQ6 1-1283): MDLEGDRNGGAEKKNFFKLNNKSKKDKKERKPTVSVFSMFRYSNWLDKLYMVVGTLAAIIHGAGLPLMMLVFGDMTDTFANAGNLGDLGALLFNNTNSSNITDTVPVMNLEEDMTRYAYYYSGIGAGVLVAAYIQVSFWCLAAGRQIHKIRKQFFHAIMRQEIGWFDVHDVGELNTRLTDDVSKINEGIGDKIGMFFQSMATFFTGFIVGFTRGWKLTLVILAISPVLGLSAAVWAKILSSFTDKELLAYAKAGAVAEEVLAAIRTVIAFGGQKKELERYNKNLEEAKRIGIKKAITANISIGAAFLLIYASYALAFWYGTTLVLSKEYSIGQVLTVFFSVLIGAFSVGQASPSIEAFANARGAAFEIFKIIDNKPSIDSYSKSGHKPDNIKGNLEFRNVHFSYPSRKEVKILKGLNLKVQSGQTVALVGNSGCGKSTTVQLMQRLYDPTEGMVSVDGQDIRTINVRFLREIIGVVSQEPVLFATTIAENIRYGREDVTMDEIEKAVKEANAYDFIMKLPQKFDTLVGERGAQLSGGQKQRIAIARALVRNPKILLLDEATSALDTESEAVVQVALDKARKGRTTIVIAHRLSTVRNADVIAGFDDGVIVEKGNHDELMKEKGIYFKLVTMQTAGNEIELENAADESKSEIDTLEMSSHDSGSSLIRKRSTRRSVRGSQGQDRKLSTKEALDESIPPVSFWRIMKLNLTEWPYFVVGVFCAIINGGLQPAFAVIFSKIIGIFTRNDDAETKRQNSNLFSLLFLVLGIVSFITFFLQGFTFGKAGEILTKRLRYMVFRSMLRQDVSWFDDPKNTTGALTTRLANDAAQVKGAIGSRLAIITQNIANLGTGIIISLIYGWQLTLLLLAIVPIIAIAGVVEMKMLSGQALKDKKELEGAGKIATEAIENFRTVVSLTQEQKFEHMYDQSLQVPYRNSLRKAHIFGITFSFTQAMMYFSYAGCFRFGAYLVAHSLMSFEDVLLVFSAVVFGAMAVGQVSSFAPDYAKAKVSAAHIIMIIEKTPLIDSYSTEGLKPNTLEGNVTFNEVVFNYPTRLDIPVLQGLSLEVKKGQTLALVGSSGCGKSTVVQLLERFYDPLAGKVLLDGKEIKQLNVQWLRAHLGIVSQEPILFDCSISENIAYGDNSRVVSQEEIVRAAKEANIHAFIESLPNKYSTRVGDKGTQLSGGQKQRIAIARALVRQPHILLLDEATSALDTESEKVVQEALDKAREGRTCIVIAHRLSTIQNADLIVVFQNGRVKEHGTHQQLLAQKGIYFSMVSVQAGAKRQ
T4 sequence (P21447 whole entry): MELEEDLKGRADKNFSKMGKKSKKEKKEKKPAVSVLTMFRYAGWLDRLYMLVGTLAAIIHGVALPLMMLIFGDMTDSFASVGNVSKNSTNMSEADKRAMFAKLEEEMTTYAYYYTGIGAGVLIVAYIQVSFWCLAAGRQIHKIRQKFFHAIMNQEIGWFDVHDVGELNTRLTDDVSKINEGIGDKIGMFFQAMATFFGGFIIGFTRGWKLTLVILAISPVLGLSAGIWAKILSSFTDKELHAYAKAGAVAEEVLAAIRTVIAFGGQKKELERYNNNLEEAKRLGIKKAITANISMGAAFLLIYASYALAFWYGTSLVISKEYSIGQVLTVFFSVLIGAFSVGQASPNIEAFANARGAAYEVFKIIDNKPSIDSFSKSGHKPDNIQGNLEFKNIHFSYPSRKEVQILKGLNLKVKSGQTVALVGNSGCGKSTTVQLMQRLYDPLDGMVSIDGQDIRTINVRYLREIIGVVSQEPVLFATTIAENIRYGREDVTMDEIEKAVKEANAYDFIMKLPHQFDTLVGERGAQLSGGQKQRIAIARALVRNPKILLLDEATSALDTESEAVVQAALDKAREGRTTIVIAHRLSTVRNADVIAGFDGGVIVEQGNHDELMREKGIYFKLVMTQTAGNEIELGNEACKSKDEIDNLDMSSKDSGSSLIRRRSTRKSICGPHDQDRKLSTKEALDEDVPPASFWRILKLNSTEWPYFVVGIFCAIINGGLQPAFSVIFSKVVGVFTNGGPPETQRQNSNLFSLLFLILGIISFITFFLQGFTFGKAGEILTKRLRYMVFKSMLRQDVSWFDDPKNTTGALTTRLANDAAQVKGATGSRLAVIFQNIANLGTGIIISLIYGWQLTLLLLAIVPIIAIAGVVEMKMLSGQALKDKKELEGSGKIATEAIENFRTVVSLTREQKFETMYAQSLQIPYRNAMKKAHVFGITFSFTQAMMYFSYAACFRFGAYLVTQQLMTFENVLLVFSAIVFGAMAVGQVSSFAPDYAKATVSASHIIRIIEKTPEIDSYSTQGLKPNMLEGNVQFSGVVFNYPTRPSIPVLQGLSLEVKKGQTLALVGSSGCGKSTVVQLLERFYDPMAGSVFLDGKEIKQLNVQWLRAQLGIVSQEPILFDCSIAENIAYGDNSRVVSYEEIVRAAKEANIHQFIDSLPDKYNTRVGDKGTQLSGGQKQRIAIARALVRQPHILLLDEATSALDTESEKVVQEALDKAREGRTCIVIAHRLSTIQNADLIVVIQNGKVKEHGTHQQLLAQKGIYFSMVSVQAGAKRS

Take `CCCCc1oc2ccccc2c1C(=O)c1cc(I)c(OCCN(CC)CC)c(I)c1` [Amiodarone]: the efflux ratio at 120 min, 1 µM on rat Mdr1a [1] came to 0.41 ± 0.05; at human BCRP it was 3.13 ± 1.74; on cynomolgus monkey Mdr1 [2] it was 2.51 ± 0.26; on human MDR1, 0.71 ± 0.09; in [3], 0.36 ± 0.04; on mouse Mdr1a [4], 0.41 ± 0.07.

Regarding `CC(C)NCC(O)COc1ccc(CC(N)=O)cc1` (stereo not shown) [Atenolol], the efflux ratio at 120 min, 1 µM on rat Mdr1a [1] turned out to be 1.22 ± 0.16; on human BCRP, 1.34 ± 0.12; at cynomolgus monkey Mdr1 [2], 1.17 ± 0.08; on human MDR1, 1.8 ± 0.2; at mouse Mdr1a [4], 1.37 ± 0.19. In the data set on hMDR1 and hBCRP, the “CNS penetration classification based on total ER (hMDR1 + hBCRP)” value was “false negatives”.

On to `O=C(O)COCCN1CCN(C(c2ccccc2)c2ccc(Cl)cc2)CC1` (stereo not shown) [Cetirizine], for which the efflux ratio at 120 min, 1 µM came to 2.43 ± 0.14 on human BCRP, 4.72 ± 0.21 on cynomolgus monkey Mdr1 [2], 17.7 ± 0.63 on human MDR1 and 0.75 ± 0.03 in data set [3].

`CCN(CC)CC(=O)Nc1c(C)cccc1C` [Lidocaine]: the efflux ratio at 120 min, 1 µM on rat Mdr1a [1] was found to be 0.93 ± 0.03; at human BCRP, 0.8 ± 0.04; on cynomolgus monkey Mdr1 [2], 0.95 ± 0.04; at human MDR1 it was 0.91 ± 0.08; in data set [3], 0.84 ± 0.02; at mouse Mdr1a [4], 0.87 ± 0.06.

Regarding `CCCNCC(O)COc1ccccc1C(=O)CCc1ccccc1` (stereo not shown) [Propafenone], the IC50 against cynomolgus monkey Mdr1 [5] is 0.3 ± 0.17 µM; at mouse Mdr1a [6] (Inhibition of digoxin transport IC50±SD, mMDR1, probe 3H-digoxin 1 µM, 120 min) it was 21.4 ± 1.85 µM; against mouse Mdr1a [6] (Inhibition of quinidine transport IC50±SD, mMDR1, probe 3H-quinidine 1 µM, 60 min), 1.99 ± 1.07 µM; at cynomolgus monkey Mdr1 [7], 1.7 ± 0.8 µM; on rat Mdr1a [8] (Inhibition of digoxin transport IC50±SD, rMDR1, probe 3H-digoxin 1 µM, 120 min) it was 6.23 ± 1.15 µM; against rat Mdr1a [8] (Inhibition of quinidine transport IC50±SD, rMDR1, probe 3H-quinidine 1 µM, 30 min) it was 1.71 ± 0.17 µM.

What is called efflux ratio is a quotient of directional permeabilities that is used to spot active efflux. In general, IC50 refers to the concentration that inhibits the measured activity by half.
